Residue numbers refer to the chain shown, from its start. The list shows a part of the results.

Binding signal data for 31 molecules are collected here from article PMC9911399, “Two distinct binding modes provide the RNA-binding protein RbFox with extraordinary sequence specificity”.

T1: RBFOX1 RRM RbFoxmut (Fox-RRM*) (Homo sapiens, UniProt Q9NWB1 109-208, R118D;E147R;N151S;E152T)
T1 sequence: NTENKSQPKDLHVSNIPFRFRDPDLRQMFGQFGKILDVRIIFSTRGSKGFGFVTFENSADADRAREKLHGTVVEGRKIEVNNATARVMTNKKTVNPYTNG

B1: GUAUACA (DNA:RNA)
RNA: GGGAGACCGGAAUUCAGAUUGUCCGUAUACAUUAAAUCCCGUCGUAGCCACCA
DNA 1: CAATCTGAATTCCGGTCTCCC
DNA 2: TGGTGGCTACGACGGGATT
B2: AAUCGUA (DNA:RNA)
RNA: B1 RNA with G25A, U26A, A27U, U28C, A29G, C30U
DNA 1: CAATCTGAATTCCGGTCTCCC
DNA 2: TGGTGGCTACGACGGGATT
B3: GACGAGG (DNA:RNA)
RNA: B1 RNA with U26A, A27C, U28G, C30G, A31G
DNA 1: CAATCTGAATTCCGGTCTCCC
DNA 2: TGGTGGCTACGACGGGATT
B4: AUUGGUG (DNA:RNA)
RNA: B1 RNA with G25A, A27U, U28G, A29G, C30U, A31G
DNA 1: CAATCTGAATTCCGGTCTCCC
DNA 2: TGGTGGCTACGACGGGATT
B5: CUAACAA (DNA:RNA)
RNA: B1 RNA with G25C, U28A, A29C, C30A
DNA 1: CAATCTGAATTCCGGTCTCCC
DNA 2: TGGTGGCTACGACGGGATT
B6: CCAAAAU (DNA:RNA)
RNA: B1 RNA with G25C, U26C, U28A, C30A, A31U
DNA 1: CAATCTGAATTCCGGTCTCCC
DNA 2: TGGTGGCTACGACGGGATT
B7: AAACCAC (DNA:RNA)
RNA: B1 RNA with G25A, U26A, U28C, A29C, C30A, A31C
DNA 1: CAATCTGAATTCCGGTCTCCC
DNA 2: TGGTGGCTACGACGGGATT
B8: UAGGUCC (DNA:RNA)
RNA: B1 RNA with G25U, U26A, A27G, U28G, A29U, A31C
DNA 1: CAATCTGAATTCCGGTCTCCC
DNA 2: TGGTGGCTACGACGGGATT
B9: GGAAUGA (DNA:RNA)
RNA: B1 RNA with U26G, U28A, A29U, C30G
DNA 1: CAATCTGAATTCCGGTCTCCC
DNA 2: TGGTGGCTACGACGGGATT
B10: CCAUACA (DNA:RNA)
RNA: B1 RNA with G25C, U26C
DNA 1: CAATCTGAATTCCGGTCTCCC
DNA 2: TGGTGGCTACGACGGGATT
B11: CCAUAGC (DNA:RNA)
RNA: B1 RNA with G25C, U26C, C30G, A31C
DNA 1: CAATCTGAATTCCGGTCTCCC
DNA 2: TGGTGGCTACGACGGGATT
B12: UCGGUGC (DNA:RNA)
RNA: GGGAGACCGGAAUUCAGAUUGUCCUCGGUGCUUAAAUCCCGUCGUAGCCACCA
DNA 1: CAATCTGAATTCCGGTCTCCC
DNA 2: TGGTGGCTACGACGGGATT
B13: GUCUAGC (DNA:RNA)
RNA: B1 RNA with A27C, C30G, A31C
DNA 1: CAATCTGAATTCCGGTCTCCC
DNA 2: TGGTGGCTACGACGGGATT
B14: UCAUCGC (DNA:RNA)
RNA: B12 RNA with G27A, G28U, U29C
DNA 1: CAATCTGAATTCCGGTCTCCC
DNA 2: TGGTGGCTACGACGGGATT
B15: GCUCGGU (DNA:RNA)
RNA: B12 RNA with U25G, G27U, G28C, U29G, C31U
DNA 1: CAATCTGAATTCCGGTCTCCC
DNA 2: TGGTGGCTACGACGGGATT
B16: AGUUUUC (DNA:RNA)
RNA: B12 RNA with U25A, C26G, G27U, G28U, G30U
DNA 1: CAATCTGAATTCCGGTCTCCC
DNA 2: TGGTGGCTACGACGGGATT
B17: UAUCAGC (DNA:RNA)
RNA: B12 RNA with C26A, G27U, G28C, U29A
DNA 1: CAATCTGAATTCCGGTCTCCC
DNA 2: TGGTGGCTACGACGGGATT
B18: UUUUGGA (DNA:RNA)
RNA: B1 RNA with G25U, A27U, A29G, C30G
DNA 1: CAATCTGAATTCCGGTCTCCC
DNA 2: TGGTGGCTACGACGGGATT
B19: UUGAUUC (DNA:RNA)
RNA: B12 RNA with C26U, G28A, G30U
DNA 1: CAATCTGAATTCCGGTCTCCC
DNA 2: TGGTGGCTACGACGGGATT
B20: CCGUCGA (DNA:RNA)
RNA: B12 RNA with U25C, G28U, U29C, C31A
DNA 1: CAATCTGAATTCCGGTCTCCC
DNA 2: TGGTGGCTACGACGGGATT
B21: GAGUACA (DNA:RNA)
RNA: B1 RNA with U26A, A27G
DNA 1: CAATCTGAATTCCGGTCTCCC
DNA 2: TGGTGGCTACGACGGGATT
B22: CGAAGCU (DNA:RNA)
RNA: B1 RNA with G25C, U26G, U28A, A29G, A31U
DNA 1: CAATCTGAATTCCGGTCTCCC
DNA 2: TGGTGGCTACGACGGGATT
B23: GGCACUA (DNA:RNA)
RNA: B1 RNA with U26G, A27C, U28A, A29C, C30U
DNA 1: CAATCTGAATTCCGGTCTCCC
DNA 2: TGGTGGCTACGACGGGATT
B24: CCGCCUA (DNA:RNA)
RNA: B12 RNA with U25C, G28C, U29C, G30U, C31A
DNA 1: CAATCTGAATTCCGGTCTCCC
DNA 2: TGGTGGCTACGACGGGATT
B25: CCCGCUA (DNA:RNA)
RNA: B12 RNA with U25C, G27C, U29C, G30U, C31A
DNA 1: CAATCTGAATTCCGGTCTCCC
DNA 2: TGGTGGCTACGACGGGATT
B26: CCAUCUA (DNA:RNA)
RNA: B1 RNA with G25C, U26C, A29C, C30U
DNA 1: CAATCTGAATTCCGGTCTCCC
DNA 2: TGGTGGCTACGACGGGATT
B27: GCAUGUA (DNA:RNA)
RNA: B1 RNA with U26C, A29G, C30U
DNA 1: CAATCTGAATTCCGGTCTCCC
DNA 2: TGGTGGCTACGACGGGATT
B28: AGCGCCA (DNA:RNA)
RNA: B1 RNA with G25A, U26G, A27C, U28G, A29C
DNA 1: CAATCTGAATTCCGGTCTCCC
DNA 2: TGGTGGCTACGACGGGATT
B29: UGGAUCC (DNA:RNA)
RNA: B12 RNA with C26G, G28A, G30C
DNA 1: CAATCTGAATTCCGGTCTCCC
DNA 2: TGGTGGCTACGACGGGATT
B30: CUUAUCU (DNA:RNA)
RNA: B1 RNA with G25C, A27U, U28A, A29U, A31U
DNA 1: CAATCTGAATTCCGGTCTCCC
DNA 2: TGGTGGCTACGACGGGATT
B31: UCGAGAA (DNA:RNA)
RNA: B12 RNA with G28A, U29G, G30A, C31A
DNA 1: CAATCTGAATTCCGGTCTCCC
DNA 2: TGGTGGCTACGACGGGATT

The assay deals with T1, RBFOX1 RRM RbFoxmut (Fox-RRM*). As to the kind of experiment: EMSA; HiTS-Eq, 1 nM pool, 10 min; buffer printed only for the single-RNA assays: 10 mM Tris pH 7.5, 150 mM NaCl, 3.4 mM EDTA, 0.001% NP-40, 30 C. The settings on record: tags: His6 N-terminal (pET28a); label: 5' 32P. In outline: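 These values rest on relative association constants, computed from read-count changes of each RNA species versus the control reaction and normalised to the cognate motif. Reads came from free RNA recovered by 8% native PAGE after purified RbFox RRM (wild type or mutant) at increasing concentrations was equilibrated for 10 min in 50 µL with 1 nM of a 5′-radiolabelled pool with 7 randomized nucleotides and DNA-annealed flanks.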
On to B1, for which the binding signal is 0.146 KA relative to UGCAUGU.

Regarding B2, the binding signal was 0.0875 KA relative to UGCAUGU.

On to B3, for which the binding signal is 0.0892 KA relative to UGCAUGU.

B4: the binding signal is 0.144 KA relative to UGCAUGU.

On to B5, for which the binding signal was 0.0569 KA relative to UGCAUGU.

Regarding B6, the binding signal was 0.0948 KA relative to UGCAUGU.

For B7, the binding signal was 0.0564 KA relative to UGCAUGU.

On to B8, for which the binding signal is 0.0734 KA relative to UGCAUGU.

On to B9, for which the binding signal is 0.772 KA relative to UGCAUGU.

Regarding B10, the binding signal is 0.114 KA relative to UGCAUGU.

B11: the binding signal is 0.0787 KA relative to UGCAUGU.

For the molecule B12, the binding signal is 0.101 KA relative to UGCAUGU.

With B13, the binding signal is 0.0934 KA relative to UGCAUGU.

For B14, the binding signal was 0.0909 KA relative to UGCAUGU.

Take B15: the binding signal is 0.137 KA relative to UGCAUGU.

Consider B16, for which the binding signal was 0.0747 KA relative to UGCAUGU.

In the case of B17, the binding signal is 0.0726 KA relative to UGCAUGU.

As for B18, the binding signal is 0.0501 KA relative to UGCAUGU.

Take B19: the binding signal was 0.196 KA relative to UGCAUGU.

With B20, the binding signal is 0.0785 KA relative to UGCAUGU.

Consider B21, for which the binding signal is 0.0764 KA relative to UGCAUGU.

B22: the binding signal was 0.0941 KA relative to UGCAUGU.

As to B23, the binding signal is 0.0618 KA relative to UGCAUGU.

B24: the binding signal was 0.0844 KA relative to UGCAUGU.

B25: the binding signal was 0.11 KA relative to UGCAUGU.

With B26, the binding signal was 0.092 KA relative to UGCAUGU.

B27: the binding signal was 1.04 KA relative to UGCAUGU.

On to B28, for which the binding signal is 0.107 KA relative to UGCAUGU.

B29: the binding signal was 0.211 KA relative to UGCAUGU.

Take B30: the binding signal was 0.074 KA relative to UGCAUGU.

As to B31, the binding signal was 0.116 KA relative to UGCAUGU.
